From PubChem BioAssay AID686978 (National Center for Advancing Translational Sciences (NCATS), 2013)
The whole screen tested about 420,000 compounds, of which about 64,000 (15%) were called active. Inconclusive results, whose numbers are uncertain, are shown with a selection of clear calls. Calls follow the shape of the dose curve; as a rule, active = well fitted inhibition curve with a large enough effect; inconclusive = small, poorly fitted or top-dose-only effect; inactive = flat fitted curve, though single readings scatter. No potency is given beside an inconclusive call; the fits are too rough.
% is scaled to controls: 0 for no effect and ±100 for the full control effect; potency is read from the fitted curve at half-maximal effect; tags tell the direction and shape of the fitted curve.

Test: qHTS for Inhibitors of human tyrosyl-DNA phosphodiesterase 1 (TDP1): qHTS in cells in absence of CPT; also: nearly all actives have a fitted effect of over 55% in size
Details: DT40 Tdp1-/- hTDP1 cells, no CPT, ATP luminescence, 48 h; activity change, negative = growth inhibition: at 46.2 µM (top of the series) unless noted
In short: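 Growth of hTDP1-complemented DT40 Tdp1-knockout cells is measured by ATP luminescence after at least 48 hr compound exposure at 37 °C, with DMSO substituting for the 20 nM CPT used in the parallel screen.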
For `CCN(CC)Cc1nc2c(c(=O)[nH]1)C1(CCCC1)Cc1ccccc1-2`, the Potency was inconclusive [inhibitor, single point]. In the case of `COC(C/C=C\[C@H](O)[C@H](C)OCc1ccccc1)OC`, the “activity change, negative = growth inhibition” value is reported as inactive: -23.4%. With `O=C(NCc1ccccc1)C1CCN(C(=O)Cc2ccccc2)CC1` the “activity change, negative = growth inhibition” value was inactive: -10.3%. For `CCCc1cc(=O)[nH]c(SCC(=O)c2cc(C)n(C(C)COC)c2C)n1` (stereo not given), the “activity change, negative = growth inhibition” value was inactive: -9%. With `COc1ccc2nc(C)cc(N3CCN(S(=O)(=O)c4ccccc4F)CC3)c2c1` the Potency was active: 3.26 µM. With `COc1ccccc1NC(=O)Cc1c(C(=O)O)[nH]c2ccc(Cl)cc12` the “activity change, negative = growth inhibition” value was inactive: -4.22%. For `N#Cc1c(NC(=O)c2ccccc2)sc2c1CCCCC2`, the activity change, negative = growth inhibition was inconclusive: -31.5% [inhibitor]. For `CCN(CC)c1ccc(C(=O)OCC(=O)Nc2ccccc2-c2ccccc2)cc1`, the Potency was active: 18.4 µM. With `COc1cc(Cn2c(=O)sc3ccccc32)ccc1OC(C)C` the Potency was active: 20.6 µM. For `O=c1[nH]c(N/N=C/c2ccccc2)nc2ccccc12`, the Potency was inconclusive [inhibitor, partial curve]. With `COc1ccc(Cl)cc1NC(=O)NNC(=O)c1ccccn1` the Potency was inconclusive [inhibitor, single point]. With `COC(=O)\C(C(C)=O)=C(/C=C/C=C/C=C/N(C)C)N(C)C` the Potency was active: 20.6 µM. In the case of `COC1=CC(=O)C(O)=C(CCCCCCC/C=C/CCCCCCCC2=C(O)C(=O)C=C(OC)C2=O)C1=O`, the “activity change, negative = growth inhibition” value is reported as inactive: -24.8%. In the case of `Cc1nn(-c2ccccc2)c(Cl)c1/C=C(\C#N)C(=O)NC(C)C`, the Potency is reported as inconclusive [inhibitor, partial curve]. With `COc1ccccc1C(=O)OCc1c(-c2ccccc2)ncc2ccccc12` the Potency was inconclusive [inhibitor, single point]. For `CS(=O)(=O)N(CCc1ccccc1)CC(=O)Nc1ccc(Br)cc1F`, the Potency was inconclusive [inhibitor, single point]. With `CC(C)C(C)NC(=O)COC(=O)c1cccc(C(=O)OCC(=O)NC(C)C(C)C)n1` (stereo not given) the “activity change, negative = growth inhibition” value was inactive: -13.8%. With `Cc1ccc(N2CC(C(=O)N/N=C/c3c(F)cccc3Cl)CC2=O)cc1` (stereo not given) the activity change, negative = growth inhibition was inconclusive: -32.1% [inhibitor]. With `Cc1ccc(S(=O)(=O)N2CCN(Cc3cccc(F)c3)CC2)cc1` the “activity change, negative = growth inhibition” value was inactive: -22.8%. In the case of `Cc1cc(=O)oc(C)c1C(=O)OCC(=O)c1ccc(Cl)cc1`, the Potency is reported as inconclusive [inhibitor, single point]. With `COc1ccc(CNC(=O)Cc2csc3ccccc23)cc1OC` the Potency was inconclusive [inhibitor, partial curve]. With `CN(C)C1(CNC(=O)C2CCN(S(=O)(=O)c3cc(Cl)ccc3Cl)CC2)CCCCC1` the Potency was inconclusive [inhibitor, single point]. For `O=C(N/N=C/c1cc([N+](=O)[O-])ccc1O)c1cc(-c2ccccc2)nc2ccccc12`, the Potency was active: 5.8 µM. For `CC(C)OC(=O)CSc1nc(N2CCOCC2)c2c(c1C#N)CC(C)(C)OC2`, the “activity change, negative = growth inhibition” value was inactive: -22.3%. With `CC1CN(c2oc(-c3cccs3)nc2C#N)CC(C)O1` (stereo not given) the “activity change, negative = growth inhibition” value was inactive: -27.6%. For `COc1ccccc1CNC(=O)CNC(=O)c1ccc(Br)o1`, the Potency was inconclusive [inhibitor, full curve, poor fit]. In the case of `Nc1ccc(CNC(=O)OCC2c3ccccc3-c3ccccc32)cc1`, the Potency is reported as inconclusive [inhibitor, single point]. With `COc1cc(Br)c(/C=C(\C#N)c2nc3ccccc3[nH]2)cc1OC` the Potency was inconclusive [inhibitor, single point]. With `O=C(COc1ccc2ccc(=O)oc2c1)Nc1cccc(S(=O)(=O)N2CCCCC2)c1` the Potency was active: 11.6 µM. For `COc1ccccc1CNc1ncnc2c1cnn2-c1ccccc1`, the Potency was inconclusive [inhibitor, single point]. In the case of `CC(=O)NC(=S)Nc1cc(C(F)(F)F)ccc1N1CCOCC1`, the activity change, negative = growth inhibition is reported as inconclusive: -30.6% [inhibitor]. With `CCCCCCCCN1C(=O)[C@H](CC(=O)NCc2cccc(C(F)(F)F)c2)C[C@@]2(C(=O)OC)CC(C)(C)CC=C12` the Potency was active: 10.3 µM. With `COc1ccc(-c2nc3cnc(OC)nc3n(CCc3ccccc3)c2=O)cc1` the “activity change, negative = growth inhibition” value was inactive: 6.64%. With `CCCCn1c(N)c(N(CC(C)C)C(=O)CCNC(=O)c2ccc([N+](=O)[O-])cc2)c(=O)[nH]c1=O` the “activity change, negative = growth inhibition” value was inactive: 3.85%. With `CC(NCc1ccc(OCc2ccc(Cl)cc2)cc1)C(O)c1ccccc1` (stereo not given) the Potency was inconclusive [inhibitor, single point]. In the case of `Cc1ccc(S(=O)(=O)c2ccsc2NC(=O)c2ccccc2)cc1`, the Potency is reported as inconclusive [inhibitor, partial curve, poor fit]. For `O=C(Nc1ccc(OC(F)F)c(Cl)c1)c1cccc(OC(F)F)c1`, the Potency was inconclusive [inhibitor, single point]. With `CC(Oc1cccc(F)c1)c1ccnc2nc(/N=C/N(C)C)nn12` (stereo not given) the Potency was inconclusive [inhibitor, single point]. In the case of `Cc1nc2ncnn2c(Nc2ccc3c(c2)OCO3)c1Cc1ccccc1`, the Potency is reported as inconclusive [inhibitor, single point]. In the case of `CCOc1ccc(CNc2ccc3c(c2)ncn3C)cc1`, the Potency is reported as inconclusive [inhibitor, partial curve]. With `Cc1ccc(OCC(=O)N2CCC3(CC2)CC(=O)c2ccccc2O3)cc1` the Potency was active: 13 µM. In the case of `O=C(OC1CC2CC1[C@H]1CCCCN1C2=O)N1CCN(c2ccccc2)CC1` (stereo not given in full), the Potency is reported as inconclusive [inhibitor, single point]. With `O=C(Cc1ccccc1)NNC(=O)c1ccc(NC(=O)c2ccccc2)cc1` the “activity change, negative = growth inhibition” value was inactive: -28.7%. In the case of `CCOc1cc(/C=N/NC(=O)CN(CCc2ccccc2)S(=O)(=O)c2ccc(NC(C)=O)cc2)ccc1O`, the Potency is reported as active: 18.4 µM. With `CCc1ccc2oc(-c3cc(N)ccc3O)nc2c1` the Potency was inconclusive [inhibitor, single point]. For `C=C(CCO)C1=CCN(S(=O)(=O)C(C)(C)C)[C@H]1CCO`, the “activity change, negative = growth inhibition” value was inactive: -2.92%. With `CCc1nc2c(OCCOc3ccc(F)cc3)cccn2c1N(C)C(=O)c1ccc(C)cc1` the Potency was active: 14.6 µM. With `O=C(NCC(c1cccs1)N1CCOCC1)c1cc(Cl)ccc1[N+](=O)[O-]` (stereo not given) the activity change, negative = growth inhibition was inconclusive: -43.1% [inhibitor]. In the case of `CC(=O)c1ccc(-c2ccc([C@H]3[C@@H]4C=CCC[C@@]4(C)C(=O)N3Cc3ccccc3)c(F)c2)cc1`, the Potency is reported as active: 16.4 µM. For `CCc1cccc(CC)c1-n1c(SCC(=O)N2CCc3ccccc3C2)nnc1-c1cccnc1`, the Potency was active: 23.1 µM. With `Cc1onc(-c2c(F)cccc2Cl)c1C(=O)N1CCc2ccccc2C1` the Potency was inconclusive [inhibitor, single point]. For `COc1cccc(C(=O)NCC(c2ccc(N(C)C)cc2)N2CCCC2)c1OC` (stereo not given), the Potency was inconclusive [inhibitor, single point]. With `CC(C)CN1CCc2nc(N3CCN(c4ncccn4)CC3)ncc2C1` the “activity change, negative = growth inhibition” value was inactive: -24.9%. For `CC1CCCCN1CC(=O)Nc1ccc2c(c1)OC(F)(F)O2` (stereo not given), the Potency was inconclusive [inhibitor, single point]. For `CCOc1cc(Cl)c(NC(=O)CC)cc1OCC`, the “activity change, negative = growth inhibition” value was inactive: 1.29%. For `COc1ccc2nc(NC(=O)c3nc(SCc4ccc(F)cc4)ncc3Cl)sc2c1`, the Potency was inconclusive [inhibitor, full curve]. In the case of `O=C(c1ccco1)N1CCN(C(=O)c2cc3sccc3n2Cc2ccccc2)CC1`, the Potency is reported as inconclusive [inhibitor, single point]. In the case of `CCN1C(=O)c2cccc3c(NC(=O)c4cccc(N5C(=O)CCC5=O)c4)ccc1c23`, the “activity change, negative = growth inhibition” value is reported as inactive: -25%. With `COc1cccc(-n2ccn(CC(=O)NCCc3ccccc3)c(=O)c2=O)c1` the “activity change, negative = growth inhibition” value was inactive: 3.22%. In the case of `CN(C(=O)c1ccc(NC(=O)Cc2cccc(NC(=O)C3CCCN(S(=O)(=O)c4cccc([N+](=O)[O-])c4)C3)c2)cc1)C1CC1` (stereo not given), the Potency is reported as inconclusive [inhibitor, partial curve, poor fit]. With `CCOc1ccc(-c2nnc(SCC(=O)NCCC(C)C)nc2-c2ccc(OCC)c(OC)c2)cc1OC` the Potency was inconclusive [inhibitor, single point]. With `Cc1ccc(C)c(OCc2nc(-c3cccnc3)no2)c1` the Potency was inconclusive [inhibitor, partial curve]. For `CC(C)c1ccc(NC(=O)c2csnn2)cc1`, the “activity change, negative = growth inhibition” value was inactive: -4.73%. In the case of `COc1ccc(Cc2c(O)nc(SCC(=O)NC(C)(C)C)[nH]c2=O)cc1`, the “activity change, negative = growth inhibition” value is reported as inactive: -21.9%. In the case of `CCOc1ccc(OCC)c(NC(=O)C2CCN(S(=O)(=O)c3ccc(Br)s3)CC2)c1`, the “activity change, negative = growth inhibition” value is reported as inactive: -11.5%. In the case of `COc1ccc(NS(=O)(=O)c2ccc3c(c2)NC(=O)CO3)c(OC)c1`, the “activity change, negative = growth inhibition” value is reported as inactive: -0.89%. For `CSc1ccc(S(=O)(=O)NCCSC(C)(C)C)cc1`, the “activity change, negative = growth inhibition” value was inactive: -22.8%. In the case of `Cc1cccc(C)c1NC(=O)C1CCCN1C(=O)NCc1ccccc1` (stereo not given), the “activity change, negative = growth inhibition” value is reported as inactive: 0.234%. In the case of `CCCCC(=O)Nc1ccc(C(=O)c2ccccc2)cc1`, the Potency is reported as inconclusive [inhibitor, partial curve]. In the case of `CCC(=O)NC(=S)Nc1ccccc1C(=O)NC1CCCCC1`, the “activity change, negative = growth inhibition” value is reported as inactive: -24.1%. In the case of `Clc1ccc(-c2nc(-c3cnccn3)no2)cc1`, the Potency is reported as inconclusive [inhibitor, partial curve]. With `CCOc1ccc(N2C(=O)C3=C(C(c4ccc(Cl)cc4)=NCCN3)C2c2cccnc2)cc1` (stereo not given) the Potency was inconclusive [inhibitor, single point]. For `NC(=O)COC(=O)c1cccc(NS(=O)(=O)/C=C/c2ccccc2)c1`, the Potency was inconclusive [inhibitor, partial curve]. For `O=C(O)c1cocc1C(=O)O`, the “activity change, negative = growth inhibition” value was inactive: -22.3%. For `CN1CCN(CCOc2ccc(Cl)c(Cl)c2)CC1`, the Potency was inconclusive [inhibitor, single point].
